Reference: the supplement of paper PMC12632987
The full ranking holds about 2,300 sequences; the median of “median log2 fold change of GCK-ALFA target abundance (FLAG IP / Myc IP barcode read proportion)” is about 0.095, and the lowest 2% start at about -0.47. The list shows a part of the results.

B1: LC3A_127_214 (protein)
chain: EKEKLIKELLELIRKAQELLAKPDYDLEEIRKLLEEAIKVAKELLKLDERFKPVLEDLESALKLVDQMENLSPAEQEEARERVSMLLDGAEIELLSLELK
B2: LC3A_28_645 (protein)
chain: SAIDEQLAAAKAEAKAAAAAGEPVVVTLTLPGDADQEDVEKILEAMEEIAEILKDVPGSAIVVDIEKGVKQEHKDKIIDKAEEIEKKYPNVTVIIALEEE
B3: LC3A_127_173 (protein)
chain: EKEKLLEEIEKLAEEISKLLDKPDFDVEEIEKLLEEAIKKAKELLKLDPEAEPILEDAEAALKTLEQYKKAPEEKKPELREHLSMLVEGLLIEVLSLLLK
B4: LC3A_3_1602 (protein)
chain: MEELVEEQLERLRAAGFPPEVLEAARRVLEALAEKGFEEAAKTLTEELLELRDLPPEELLATLERILEIVETEDLNEEELIKRIKEEFRVARLAGEIEEL
B5: LC3A_3_1379 (protein)
chain: GEELLERAREILEEQGRSEEATEAALETLRALLERGYEEAAETLVELLEESEDLSDEELLAFFESVLRAVTEEDLSEEELIELIKEEFEVAKNAEEIEEL
B6: LC3A_28_1320 (protein)
chain: SEVEKEYEKAREQAEKQAALGEDITITVKVSGKMTKEEAEELMDKLEEIAEEYAPERKVNIIIDLDSKVKQEVIDLIADKAEEIEEKYPNVTVILALDEE
B7: LC3A_3_1466 (protein)
chain: AEELKKEAEKILKEQGRSEETIKEAKKLLEALAAKGYEEAMKTFVEELKKMKNVSDDILLATLKDLLHIVETEDLNEEEIVKEIKSEFSAAKNEQEIIEL
B8: LC3A_45_2004 (protein)
chain: MWEITIDLLGKPEVVKEAVEKIKEVAKELSKETGKKIEVDTSEAEEALAASQNEEEVFVTITIKVDGDEEDANKLIQAIDKVHEEIGPELASIISKEKIP
B9: LC3A_147_401 (protein)
chain: IVIEATVDVLGEEAAPLAKERAEEIVKELREKGAEVELEIEEEELAPGEVAVRITITVKVETEEAAEEATALISEKLDELAEEVAALGGAIISSIDVIEE
B10: LC3A_62_2055 (protein)
chain: MEKGTIYIDALFKTEETAEKFEKKVKEIVEEAKKEGINVELKIEREKEDGEYFVHVTITTDSEEATLKLYDKVVELVDEMIAEYPDEVLAAIISREIEKL
B11: LC3A_102_152 (protein)
chain: TPEEKLKEAAEKALEELLAAIEANERLTPEQKEEAKELARRAIEAKLRDQLSYLRHGFSDIEAEDEYIEAVERLREIDPELAELLEKKREELEKLAEELK
B12: LC3A_free_8_2511 (protein)
chain: NKEEAAKVISEKYDEIEKKIEELGKKDGLSELEINELLLVVGAEHMEVLLALEDGLEKAIEAAKEAKEEIMKALEPLSEESKKKVKELLEKLIEELKKIA
B13: LC3A_28_1224 (protein)
chain: SHVEEEIKKAEEEMEKAHKAGEEATITVKITGKTTVEDVEKLMEELEKIVEKYKDLPAISIIIDLSGDVSQEVIDKAAEGGEEIEEKFPNVTVILALDEE
B14: LC3A_45_1923 (protein)
chain: MWEATVDLLVPRELAEEALALIRELAAELEERYGPDLKVDLATLEESYEASKDEEDVYFEVKITHPDRDKALDAADELVDRLQEALGGKVAAMISLKEVP
B15: LC3A_17_569 (protein)
chain: SAETEKLYKEAVKALKEAAKFAATIDPEAAAKIKALLKEVEEAYKTLSDLEIAETIAKAMDEVSDILDSLEGKDPENASLLSMEMEGVAIEAESLALKLE
B16: LC3A_147_509 (protein)
chain: YIVEIDIDLLVKNKVEEVKEKFKEIVEELKKKGYEVELEIEEEKIDENTYYVKVKITIKAETKEEAEEAANLTLDLLDKLEEELKEDILGSLISVEITEA
B17: LC3A_28_843 (protein)
chain: SKTEKDIKKALAEAEEAAKKKESKVITINVYKGDTQEEIDAIIKALEEIAEILKDLPNQSIIVNFEEPIDQEHQDAIIDKAEEIEKKYPNITVIIALPEE
B18: LC3A_free_0_2118 (protein)
chain: KKTVVEVVVILDESVDEETAEKIYEELKKKAEELAKENGGEVKSSLSKSDGRYIITIEITFDTEDIDLALEVEDELVKIAEEILKKAGVEATIFSSVYLE
B19: LC3A_102_132 (protein)
chain: SIEEKAKELLEKVLKEIEEFLEEDDSLSEEEKERILELARKATELTIKNTITEEQHGFVDIVAEDEREEALEEIEKISPEVAEKLKKLLEETREELKKFL
B20: LC3A_147_498 (protein)
chain: VKVKIEFENVSEELKKAIEELAKELEKLAKKYKGEILVKVIIDILDKNGGYARIEIEAYVENEEEAKELIDEIIDLVEEFYEKNKDLISAVVVSAEIEEP
B21: LC3A_free_46_2405 (protein)
chain: YVAEIEIDLLADSREKAEAARDAIEAAAREIAAEHGAEIEIESEIEEEPDGTVFVTIKITLRAEDEETLLAAVNDIIDAAEEIAKEHGASIIISYEISKE
B22: LC3A_23_604 (protein)
chain: KYLVSLTVDFIAEPEEAKEIVEKLKEAVEEILEKNKDLVVEHEIDVEFTELPDGRTLVEVDIDIIIDSTKEEAEEIANELTKAASEVAPDGVISSEVEEL
B23: LC3A_28_1093 (protein)
chain: SALDKSLEAALAETRAAAAAGEEVLVTITITDDATEEDIEKLKETLEEIAEIGKSLPRLTVVIDLEGKNQEEKANIISEFADELEEKYPNLTIIIALEEE
B24: LC3A_free_46_2318 (protein)
chain: YKAEISIDLYGIDKEKAEKAVEEIVKKAKEIAKKYGLKLEIKVNIEKNEDGTYYVNIDITLEGDDKEKLEAAVNEIIAAVDEIAEKYGASYVISYEIEEE
B25: LC3A_28_1137 (protein)
chain: MEIVEEARKQIREDAEKDKDEPDVLLRVRLTGEVTVEEAREIMDIVEEEVEKLKDKEKIYVLVEALEPISQEVLDEILDRGDEIEKKFPNVDVIVALPED
B26: LC3A_28_1038 (protein)
chain: SALQAAAEAALAEAEKQLAEGDEAVVTLDVPPTPKEEAVATVKAFLDRLIELSKKYGNKKIHVVINYDGDQETLDAIIDIAEEAEEKNPNLTVIIAYDDK
B27: LC3A_147_429 (protein)
chain: YVTDVDIDILTKDAEEEVLAMARAIKEELEARGYKVTLEINVEELENGEKFIDIRITIETATLEEAQAAADYVVDRFDELEEKLKDKILGSIISVDIEKA
B28: LC3A_132_245 (protein)
chain: EEEEAEKLKKELEEKLKKLEESLDDLEKVKKLVAEIEELLEEAKKKLSPETALEIFEYVSDKLDEIAEKAEKAGKKDVARLIENASMYADGLAIEEELKL
B29: LC3A_28_956 (protein)
chain: SALEEALKKAIEEAKKAAEKGEPAVITIKVPGDADEEDIEKVIEALREIAEILKDVKGAAIIVDVDGKVKQEHIDKIAEEAERIEKEYPNVTVIIALDEE

Each binder was assayed against MAP1LC3A, Q9H492 (assay: median log2 fold change of GCK-ALFA target abundance (FLAG IP / Myc IP barcode read proportion) (log2 ratio); each designed protein is fused to an ALFA-tag nanobody in HEK293 cells to bring the named protein to FLAG-tagged glucokinase (GCK); Myc marks an untargeted standard; higher = target protein stabilised (more abundant)). Conditions: target protein: 3xFLAG-MCP-GCK-ALFA reporter; HEK293 landing pad (RPLP).
In short: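 Sequencing of reverse-transcribed, amplified circular RNA barcodes from anti-FLAG and anti-Myc immunoprecipitates provided the readout for an ALFA-nanobody-fused binder library recombined into HEK293 landing-pad cells. Those cells were induced with 2 μg mL^−1 doxycycline, transfected with a plasmid expressing a FLAG-tagged target and a Myc-tagged standard, and lysed after 48 h. Target abundance is the per-binder median log2 ratio of FLAG to Myc barcode read proportions. Only barcodes at a proportion of ≥10^−7 in both replicates and binders with ≥3 barcodes per replicate were kept, with a 10^−6 pseudocount added before the two replicates were pooled.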

| Binder | median log2 fold change |
| --- | --- |
| B1 | 0.409 |
| B2 | -0.232 |
| B3 | 0.0826 |
| B4 | 0.21 |
| B5 | 0.12 |
| B6 | 0.0662 |
| B7 | 0.346 |
| B8 | 0.0876 |
| B9 | -0.00887 |
| B10 | -0.0614 |
| B11 | 0.284 |
| B12 | 0.196 |
| B13 | 0.226 |
| B14 | -0.0824 |
| B15 | -0.0472 |
| B16 | -0.0549 |
| B17 | 0.382 |
| B18 | -0.193 |
| B19 | -0.0891 |
| B20 | 0.165 |
| B21 | -0.113 |
| B22 | -0.0448 |
| B23 | 0.0472 |
| B24 | -0.208 |
| B25 | 0.025 |
| B26 | 0.0235 |
| B27 | -0.271 |
| B28 | -0.0179 |
| B29 | -0.0851 |
